# Experimental data from PubChem BioAssay AID1345082 (National Center for Advancing Translational Sciences (NCATS), 2018).
# Out of some 94,000 compounds screened, about 4,000 (4.3%) were called active. The inconclusive results got no clear call from the source; some entries with a clear call stand among them for comparison. Calls follow the shape of the dose curve; as a rule, active = well fitted inhibition curve with a large enough effect; inconclusive = small, poorly fitted or top-dose-only effect; inactive = no such curve, though single readings can be large or run the other way. Potencies beside an inconclusive call are fits to weak or partial responses and may not hold up.
# Test: Cytotoxic Profiling in NIH 3T3 Cell Line of Diverse Libraries Using Quantitative High-Throughput Screening; also: nearly all actives have a fitted effect of over 55% in size
# Details: NIH 3T3 viability, CellTiter-Glo ATP luminescence, 48-72 h; series mostly up to 96.7 µM
# In short: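 Cells were seeded at 400 per well, treated with pin-transferred compound, and kept 48 or 72 hr at 37 °C before CellTiter-Glo addition and luminescence imaging of cellular ATP.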
# Potency is read from the fitted curve at half-maximal effect; tags tell the direction and shape of the fitted curve.
row,Compound,Potency
1,CN1C[C@@H](NC(=O)c2cnccn2)C[C@H]1c1nc(-c2ccc3c(c2)OCO3)no1,"inconclusive: 70.8 µM [inhibitor, partial curve]"
2,CCOc1ccccc1C(=O)N1CCC2(CC1)NC(=O)N(c1cccc(Cl)c1)N2,"inconclusive: 35.5 µM [inhibitor, partial curve]"
3,Cc1cccc(-c2nc3cc4c(cc3cc2CN2CCC[C@H]2C(N)=O)OCO4)c1,"inconclusive: 50.1 µM [inhibitor, partial curve, poor fit]"
4,COc1ccc(C(=O)N2CCCN(c3nnc4ccccn34)CC2)cc1F,inactive
5,Cc1noc(C)c1C(=O)NCC(=O)N1CCCCCCNC(=O)CC1c1ccccc1 (configuration not stated),inactive
6,COc1ccc(-c2cc(C[C@@H]3CC[C@H](O)[C@@H](CN(Cc4ccccc4OC)Cc4ccccc4OC)O3)no2)cc1,"inconclusive: 44.7 µM [inhibitor, partial curve, poor fit]"
7,CC(NC(=O)c1ccc(C(C)(C)C)cc1)C(=O)N1CCN(c2ccccn2)CC1 (configuration not stated),"inconclusive: 50.1 µM [inhibitor, partial curve, poor fit]"
8,O=C(NCCOc1ccccc1)c1nc2c(o1)CCN(Cc1cccc(F)c1)CC2,"inconclusive: 100 µM [inhibitor, partial curve]"
9,C[C@H]1[C@@H]2[C@@H](O)C([C@H](C)C(=O)NC3CC3)CC[C@@]2(C)CC[C@@H]1NC(=O)C1CCCCC1 (some centres not stated),inactive
10,Cc1cccc(OCC(=O)N2CCC3(CC2)NC(=O)N(c2cccc(F)c2)N3)c1,"inconclusive: 56.2 µM [inhibitor, partial curve, poor fit]"
11,COc1ccc(-c2cc(N3CCCC(NC(=O)Cc4ccc(F)cc4)C3)n[nH]2)cc1 (configuration not stated),"inconclusive: 50.1 µM [inhibitor, partial curve, poor fit]"
12,CC(=O)Nc1ccc(CN2CC3(C2)C(=O)Nc2ccccc23)cc1,"inconclusive: 89.1 µM [inhibitor, single point]"
13,CCc1ccc(NC(=O)c2cc3n(n2)CC(c2ccc4c(c2)OCO4)OC3)cc1 (configuration not stated),"inconclusive: 44.7 µM [inhibitor, partial curve, poor fit]"
14,COc1ccc(-c2ccc3ncn(Cc4ccccc4)c(=O)c3n2)cc1OC,"inconclusive: 35.5 µM [inhibitor, partial curve]"
15,CCOc1ccccc1NC(=O)N1CCCC(Cn2c(C3CC3)nc3cccnc32)C1 (configuration not stated),"inconclusive: 28.2 µM [inhibitor, partial curve, poor fit]"
16,CC1CCN(C(=O)c2ccc3c(c2)C(O)CCCCCN3C)CC1 (configuration not stated),"inconclusive: 50.1 µM [inhibitor, partial curve, poor fit]"
17,O=C(CCn1cncn1)N1CCc2[nH]nc(-c3cccc4ccccc34)c2C1,inactive
18,COc1ccccc1-c1[nH]nc2ncc(-c3c(C)noc3C)nc12,"inconclusive: 3.16 µM [inhibitor, full curve, poor fit]"
19,Cc1cccc2[nH]c(CNC(=O)C3CCC(=O)N(CC4CCCCC4)C3)nc12 (configuration not stated),"inconclusive: 89.1 µM [inhibitor, partial curve, poor fit]"
20,CC(=O)N1CCN(C(=O)c2ccc3oc(-c4ccncc4Cl)nc3c2)CC1,"inconclusive: 56.2 µM [inhibitor, partial curve, poor fit]"
21,CC(C)c1nc(CNC(=O)c2ccc(OC3CCN(C(=O)C4CC4)CC3)cc2)cs1,"inconclusive: 56.2 µM [inhibitor, partial curve, poor fit]"

row,Compound,Potency
1,O=C(OCc1ccccc1)N1CCCC2(C1)C(=NC1CCCC1)NC(=O)N2c1cc(F)cc(F)c1 (configuration not stated),"inconclusive: 79.4 µM [inhibitor, partial curve, poor fit]"
2,CC(C)(C)OC(=O)NCCCC(=O)NCc1c[nH]c2ncccc12,inactive
3,Cc1oc2c(c1C(=O)N1CCCCCC1)CN(Cc1cccc(F)c1)CC2,"inconclusive: 44.7 µM [inhibitor, partial curve, poor fit]"
4,O=C(Nc1cc(-c2cccnc2)nn1-c1ccccc1)c1ccc(Cl)nc1,"inconclusive: 44.7 µM [inhibitor, partial curve, poor fit]"
5,O=C(c1cccc(-c2cccc(-n3cnnc3)c2)c1)N1CCCCC1,"inconclusive: 31.6 µM [inhibitor, full curve]"
6,CCOc1cccc(-c2noc(-c3ncn4c3COC(c3ccc(OC)cc3)C4)n2)c1 (configuration not stated),active: 22.4 µM
7,O=C(Nc1cccc(F)c1)c1ccc(Cn2ccn3nc4c(c3c2=O)CCCC4)cc1,"inconclusive: 28.2 µM [inhibitor, full curve]"
8,O=C1CC2(CCN(C(=O)C3CCCN(C(=O)c4cccc(Cl)c4)C3)CC2)Oc2ccccc2N1 (configuration not stated),"inconclusive: 50.1 µM [inhibitor, partial curve, poor fit]"
9,CC(C)(C)C(=O)NCCNC(=O)c1cccc(-c2ccc(C(F)(F)F)cc2)c1,active: 44.7 µM
10,CC(C)CNC(=O)N1CC(n2cc(C(=O)NCc3ccncc3)nn2)C1,inactive
11,O=C(Nc1ccc2c(N3CCCCC3)ncnc2c1)c1ccc(F)cc1,active: 28.2 µM
12,Cc1ccc(NC(=O)C2CN(c3ccnc4ccnn34)C2)cc1,"inconclusive: 31.6 µM [inhibitor, partial curve, poor fit]"
13,COc1ccc(NC(C)=O)cc1NC(=O)Cn1nc2c(cc1=O)CCCCC2,"inconclusive: 50.1 µM [inhibitor, partial curve, poor fit]"
14,CC(C)CNC(=O)C1CCN(C(=O)c2ccc(-c3cccs3)cc2)CC1,"inconclusive: 50.1 µM [inhibitor, partial curve, poor fit]"
15,COc1ccc(-c2c(C(=O)Nc3ccc(C)cc3)nc3sccn23)cc1,inactive
16,O=C(C[C@@H]1CCNC[C@@H]1Cc1cc(-c2ccc(F)cc2)on1)NCc1ccccc1,active: 112 µM
17,O=C(C1CCOCC1)N1CC(Oc2ccc(-c3nc(-c4ccccc4)no3)cc2)C1,inactive
18,COc1ccc(NC(=O)O[C@@H]2C=C[C@H](c3c(C)nn(-c4ccc(C)c(Cl)c4)c3C)C2)cc1,"inconclusive: 50.1 µM [inhibitor, partial curve, poor fit]"
19,OC1(c2cccc(C(F)(F)F)c2)CCN(Cc2nc(-c3cccs3)no2)CC1,"inconclusive: 35.5 µM [inhibitor, partial curve, poor fit]"
20,Cc1cccc(C)c1OCc1cc(C(=O)N2CCCC(C(=O)c3nccn3C)C2)no1 (configuration not stated),inactive
21,CCCC(O)CN1CCC(=O)N(C2CCCC2)Cc2ccccc21 (configuration not stated),"inconclusive: 50.1 µM [inhibitor, partial curve, poor fit]"

row,Compound,Potency
1,NC(=O)c1ccc(NC(=O)C[C@H]2NC(=O)c3ccccc3NC2=O)cc1,"inconclusive: 35.5 µM [inhibitor, single point]"
2,O=C(NCc1ccccn1)C1CCN(Cc2ccccc2-c2cccnc2)CC1,inactive
3,COc1ccc(C2(C(=O)N(C)Cc3cccc(OC(F)(F)F)c3)CCOCC2)cc1,"inconclusive: 50.1 µM [inhibitor, single point]"
4,COc1ccc(Cc2nc3nccc(-c4cc(OC)c(OC)c(OC)c4)n3n2)cc1,"inconclusive: 15.8 µM [inhibitor, full curve, poor fit]"
5,O=C(NCCC1=CCCCC1)c1cc2n(n1)CC(c1ccc3c(c1)OCO3)OC2 (configuration not stated),"inconclusive: 50.1 µM [inhibitor, partial curve, poor fit]"
6,Cc1nc(C)c(C(=O)N2CCC(N3C(=O)C4(CCCC4)C3c3scnc3C)CC2)s1 (configuration not stated),"inconclusive: 50.1 µM [inhibitor, partial curve, poor fit]"
7,COc1ccc(-c2cc(C(=O)NCC#N)c3cnn(C)c3n2)cc1,active: 15.8 µM
8,Cc1cc(C)c(CNC(=O)c2cc(-c3ccnn3C)cc3c2OCCN3C)c(=O)[nH]1,"inconclusive: 28.2 µM [inhibitor, full curve, poor fit]"
9,O=C1NCCCCCCN(C(=O)C2CC2)[C@H]2CCCC[C@@H]12,inactive
10,COC(=O)c1cccc(C(=O)NC2CCCN(CCCc3ccccc3)C2)c1 (configuration not stated),"inconclusive: 70.8 µM [inhibitor, partial curve, poor fit]"
11,CCC(=O)NCCC1CCN(C(=O)Nc2cc(F)ccc2F)CC1,inactive
12,Cc1cc(-c2cc3c(cn2)CN(Cc2ccccc2O)CCN3)ccn1,"inconclusive: 70.8 µM [inhibitor, partial curve, poor fit]"
13,S=C(NC1CCCCC1)N[C@H]1CO[C@H]2[C@@H]1OC[C@@H]2n1nnnc1-c1ccc2c(c1)OCO2,"inconclusive: 8.91 µM [inhibitor, full curve, poor fit]"
14,CC(=O)Nc1ccc(CN2CCCC(c3nc4ccc(F)cc4c(=O)[nH]3)C2)cc1 (configuration not stated),"inconclusive: 39.8 µM [inhibitor, partial curve, poor fit]"
15,O=C1NCCCCCCN(S(=O)(=O)c2ccccc2)[C@H]2C[C@H](c3nc(-c4cccnc4)no3)C[C@@H]12,inactive
16,COc1cccc(CCC(=O)N2CCC(Cc3nc(C4CCOCC4)no3)CC2)c1,inactive
17,Cc1ccc(-c2cc3c(=O)n(CCNC(=O)c4ccc(N(C)C)cc4)ccn3n2)c(C)c1,inactive
18,CCc1noc(-c2cn(C3CCCN(C(=O)COc4ccc(F)cc4)C3)nn2)n1 (configuration not stated),inactive
19,CN1CCCC2(C1)CN(Cc1cccnc1)c1ccc(C(=O)Nc3ccccc3)cc12 (configuration not stated),active: 89.1 µM
20,COc1ccc(CN2C[C@@H]3C[C@H]2C(=O)N(Cc2ccccn2)c2ccccc2O3)cc1,"inconclusive: 89.1 µM [inhibitor, partial curve]"
